# Values joined by “and” are separate entries in the source; they are usually repeats but may differ in a detail not shown here. Equal entries are not always repeated. The inconclusive results got no clear call from the source; some entries with a clear call stand among them for comparison. For some of these results: Potencies of inconclusive entries are doubtful fits and often do not repeat. Active and inactive are the calls of the source. Unless noted, calls follow the shape of the dose curve; as a rule, active = well fitted curve in the direction sought with a large enough effect in the repeat runs; inconclusive = weak or mixed curves; inactive = no such curve, though single readings can be large; an effect the other way counts as inactive or inconclusive.
# Assays:
# [1] = qHTS assay for identifying genotoxic compounds that show differential cytotoxicity against isogenic chicken DT40 cell lines with known DNA damage response pathways - Rev3 mutant cell line (AID 743014); details: chicken DT40 Rev3-/- viability, CellTiter-Glo, 40 h; activity, negative = cytotoxicity: at 68.4 µM (top of the series) unless noted; also: potency is read from the fitted curve at half-maximal effect; nearly all actives have a fitted effect of over 55% in size
# [2] = qHTS assay to identify small molecule antagonists of the estrogen receptor alpha (ER-alpha) signaling pathway using the BG1 cell line - cell viability counter screen (AID 743081); details: BG1Luc4E2 viability, CellTiter-Fluor, 22 h; activity change, negative = cytotoxicity: at 70.3 µM (top of the series) unless noted;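 also: compound given together with 17beta-estradiol as the ER stimulus; nearly all actives have a fitted effect of over 45% in size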; also: potency is read from the fitted curve at half-maximal effect
# [3] = target: Peroxisome proliferator-activated receptor gamma (Homo sapiens) (UniProt P37231); assay: qHTS assay to identify small molecule antagonists of the peroxisome proliferator-activated receptor gamma (PPARg) signaling pathway (AID 743191; calls by dose curve; also: % is scaled to controls: 0 for no effect and ±100 for the full control effect; nearly all actives have a fitted effect of over 30% in size); details: HEK293H PPARg-UAS-bla, beta-lactamase ratio, antagonist, 17 h; ratio activity, negative = inhibition: at 62.6 µM (top of the series) unless noted
# Chain of UniProt P37231 (P37231 whole entry, looked up): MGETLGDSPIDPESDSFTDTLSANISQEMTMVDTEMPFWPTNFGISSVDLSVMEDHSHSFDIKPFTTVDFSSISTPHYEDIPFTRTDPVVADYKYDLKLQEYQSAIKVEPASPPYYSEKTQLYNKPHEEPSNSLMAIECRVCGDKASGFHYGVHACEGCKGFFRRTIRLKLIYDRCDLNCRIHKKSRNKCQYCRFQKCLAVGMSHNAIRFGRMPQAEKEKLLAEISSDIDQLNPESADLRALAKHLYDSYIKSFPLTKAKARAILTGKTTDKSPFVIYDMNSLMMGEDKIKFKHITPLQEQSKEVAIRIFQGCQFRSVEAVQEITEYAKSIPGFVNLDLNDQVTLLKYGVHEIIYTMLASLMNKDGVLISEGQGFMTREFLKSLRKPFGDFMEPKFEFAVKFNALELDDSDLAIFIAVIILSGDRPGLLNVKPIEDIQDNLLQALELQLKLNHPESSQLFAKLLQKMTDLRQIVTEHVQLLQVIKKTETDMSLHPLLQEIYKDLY
# Outline: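 GeneBLAzer PPARg UAS-bla HEK293H cells, 5 h post-plating, exposed to compounds 17 h at 37C. LiveBLAzer B/G FRET substrate added for 1 h at room temperature; beta-lactamase reporter read by fluorescence intensity.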
# [4] = qHTS assay to identify small molecule antagonists of the peroxisome proliferator-activated receptor delta (PPARd) signaling pathway - cell viability counter screen (AID 743213); details: PPARd-bla HEK293H viability, CellTiter-Glo luminescence, 17 h; viability change, negative = cytotoxic: at 62 µM (top of the series) unless noted; also: potency is read from the fitted curve at half-maximal effect; nearly all actives have a fitted effect of over 50% in size
# Outline: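 HEK293H cells with the PPARd UAS-bla reporter, co-treated 17 h at 37 C with compounds and L165041 (300 nM final), were lysed with CellTiter-Glo. Luminescence indicated viable cell content.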
# [5] = target: Vitamin D3 receptor (Homo sapiens) (UniProt P11473); assay: qHTS assay to identify small molecule antagonists of the vitamin D receptor (VDR) signaling pathway (AID 743223; active = well fitted inhibition curve with a large enough effect in the signal ratio in the repeat runs, not every such curve was filed as active; inconclusive = weak or mixed curves, or effect the other way; inactive = no such curve, though single readings can be large or run the other way; the % refers to the signal ratio; also: % is scaled to controls: 0 for no effect and ±100 for the full control effect); details: VDR-UAS-bla HEK293T, beta-lactamase FRET ratio, 16 h; activity change, negative = inhibition: at 61 µM (top of the series) unless noted
# Chain of UniProt P11473 (P11473 whole entry, looked up): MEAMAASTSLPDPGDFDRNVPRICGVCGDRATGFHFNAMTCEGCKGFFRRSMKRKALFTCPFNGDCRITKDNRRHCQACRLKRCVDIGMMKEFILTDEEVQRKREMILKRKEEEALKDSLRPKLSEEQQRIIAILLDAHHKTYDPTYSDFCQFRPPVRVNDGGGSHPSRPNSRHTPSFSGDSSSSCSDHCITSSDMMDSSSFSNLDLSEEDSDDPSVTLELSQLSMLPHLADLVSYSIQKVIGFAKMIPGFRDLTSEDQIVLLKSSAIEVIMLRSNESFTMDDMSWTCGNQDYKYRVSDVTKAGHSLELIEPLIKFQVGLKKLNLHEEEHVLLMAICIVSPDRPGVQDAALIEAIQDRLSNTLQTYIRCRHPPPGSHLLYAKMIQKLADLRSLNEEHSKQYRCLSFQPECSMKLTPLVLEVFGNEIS
# Outline: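 Reporter line VDR-bla; stimulus 1alpha,25-(OH)2 vitamin D3, 3 nM final; compound co-addition, 16 h 37C/5% CO2; LiveBLAzer B/G substrate 2 h RT; fluorescence intensity.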
# [6] = target: Progesterone receptor (Homo sapiens) (UniProt P06401); assay: qHTS assay to identify small molecule antagonists of the progesterone receptor (PR) signaling pathway (AID 1346795; active = well fitted inhibition curve with a large enough effect in the signal ratio in the repeat runs, not every such curve was filed as active; inconclusive = weak or mixed curves; the % refers to the signal ratio; also: % is scaled to controls: 0 for no effect and ±100 for the full control effect); details: PR-UAS-bla HEK293T, beta-lactamase FRET ratio, 16 h; activity change, negative = inhibition: at 92.4 µM (top of the series) unless noted
# Chain of UniProt P06401 (P06401 whole entry, looked up): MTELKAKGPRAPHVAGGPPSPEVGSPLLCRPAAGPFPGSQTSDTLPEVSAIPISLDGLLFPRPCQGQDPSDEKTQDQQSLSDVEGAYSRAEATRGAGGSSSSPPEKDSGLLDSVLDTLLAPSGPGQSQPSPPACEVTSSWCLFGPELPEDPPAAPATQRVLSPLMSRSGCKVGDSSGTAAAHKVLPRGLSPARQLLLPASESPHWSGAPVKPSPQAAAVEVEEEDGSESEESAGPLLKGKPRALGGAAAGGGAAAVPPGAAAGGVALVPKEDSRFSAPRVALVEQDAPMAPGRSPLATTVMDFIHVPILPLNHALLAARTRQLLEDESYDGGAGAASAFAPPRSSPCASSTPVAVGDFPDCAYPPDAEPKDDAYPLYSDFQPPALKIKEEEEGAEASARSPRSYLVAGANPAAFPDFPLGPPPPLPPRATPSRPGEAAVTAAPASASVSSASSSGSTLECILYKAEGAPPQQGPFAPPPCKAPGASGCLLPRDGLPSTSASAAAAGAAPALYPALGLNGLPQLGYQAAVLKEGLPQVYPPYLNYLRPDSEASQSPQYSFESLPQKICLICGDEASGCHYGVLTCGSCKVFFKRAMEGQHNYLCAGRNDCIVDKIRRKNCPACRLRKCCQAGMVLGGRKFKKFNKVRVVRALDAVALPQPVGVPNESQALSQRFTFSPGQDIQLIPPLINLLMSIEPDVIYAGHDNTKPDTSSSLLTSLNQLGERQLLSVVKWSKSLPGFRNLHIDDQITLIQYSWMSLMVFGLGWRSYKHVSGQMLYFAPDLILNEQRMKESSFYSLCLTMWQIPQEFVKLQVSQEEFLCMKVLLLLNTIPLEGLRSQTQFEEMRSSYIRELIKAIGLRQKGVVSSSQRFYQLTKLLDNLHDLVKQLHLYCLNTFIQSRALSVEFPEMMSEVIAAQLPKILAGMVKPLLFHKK
# Outline: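 In HEK293T cells bearing the PR-UAS-bla reporter, compound effects on promegestone-driven (1 nM) beta-lactamase expression are assessed after 16 hr using a fluorescent FRET substrate incubated 2 hr at room temperature.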
# [7] = target: Cytochrome P450 2C19 (Homo sapiens) (UniProt P33261); assay: Cytochrome P450 Family 2 Subfamily C Member 19 (CYP2C19) small molecule antagonists: luciferase reporter qHTS assay (AID 1671197); also: potency is read from the fitted curve at half-maximal effect; nearly all actives have a fitted effect of over 65% in size
# Chain of UniProt P33261 (P33261 whole entry, looked up): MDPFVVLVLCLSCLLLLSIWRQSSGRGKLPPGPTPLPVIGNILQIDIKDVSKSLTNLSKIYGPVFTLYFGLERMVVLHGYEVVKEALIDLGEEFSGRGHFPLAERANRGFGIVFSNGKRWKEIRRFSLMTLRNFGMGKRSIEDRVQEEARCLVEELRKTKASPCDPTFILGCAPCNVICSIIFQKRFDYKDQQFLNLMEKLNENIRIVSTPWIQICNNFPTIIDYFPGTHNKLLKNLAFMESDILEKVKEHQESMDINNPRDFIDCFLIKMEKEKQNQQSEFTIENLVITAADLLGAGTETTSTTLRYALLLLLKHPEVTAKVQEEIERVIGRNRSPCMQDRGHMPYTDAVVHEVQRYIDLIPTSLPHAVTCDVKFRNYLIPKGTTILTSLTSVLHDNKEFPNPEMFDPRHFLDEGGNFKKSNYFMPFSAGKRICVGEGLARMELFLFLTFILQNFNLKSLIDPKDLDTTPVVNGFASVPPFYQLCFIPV
# Outline: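 Relative luminescence units recorded 20 min after the detection reagent stopped a 1 h, 37C CYP2C19 reaction on proluciferin substrate, which was started by NADPH regeneration following 10 min room-temperature compound preincubation; ketoconazole positive control.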
# [8] = target: Cytochrome P450 2C9 (Homo sapiens) (UniProt P11712); assay: Cytochrome P450 Family 2 Subfamily C Member 9 (CYP2C9) small molecule antagonists: luciferase reporter qHTS assay (AID 1671198); also: nearly all actives have a fitted effect of over 50% in size; also: potency is read from the fitted curve at half-maximal effect
# Chain of UniProt P11712 (P11712 whole entry, looked up): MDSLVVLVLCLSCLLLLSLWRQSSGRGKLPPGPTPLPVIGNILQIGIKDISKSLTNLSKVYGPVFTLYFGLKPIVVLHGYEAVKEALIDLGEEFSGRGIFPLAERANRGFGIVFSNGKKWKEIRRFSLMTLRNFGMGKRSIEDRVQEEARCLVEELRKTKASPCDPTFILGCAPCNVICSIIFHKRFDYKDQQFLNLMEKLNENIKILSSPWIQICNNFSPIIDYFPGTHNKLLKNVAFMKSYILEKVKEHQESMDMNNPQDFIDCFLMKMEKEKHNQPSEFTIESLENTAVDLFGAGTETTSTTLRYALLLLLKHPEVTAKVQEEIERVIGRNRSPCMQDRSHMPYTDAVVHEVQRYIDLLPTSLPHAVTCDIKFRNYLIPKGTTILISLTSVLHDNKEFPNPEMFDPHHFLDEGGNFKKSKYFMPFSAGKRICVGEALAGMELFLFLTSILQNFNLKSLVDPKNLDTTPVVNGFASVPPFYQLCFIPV
# Outline: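 P450-Glo proluciferin substrate with CYP2C9 enzyme; 10 min RT preincubation, then NADPH regeneration 1 h at 37C; luciferin detection reagent 20 min RT, luminescence in relative luminescence units.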
# [9] = qHTS assay for small molecule agonists of the p53 signaling pathway (AID 651631; calls by dose curve; also: nearly all actives have a fitted effect of over 15% in size; also: potency is read from the fitted curve at half-maximal effect); details: HCT-116 p53RE-bla reporter, beta-lactamase FRET ratio, 16 h; activation: at 73.3 µM (top of the series) unless noted
# Outline: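 We treat p53RE-bla HCT-116 cells with compounds for 16 h at 37 °C, add LiveBLAzer B/G FRET substrate for 2 h at room temperature, and measure fluorescence intensity.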
# [10] = qHTS assay for small molecule disruptors of the mitochondrial membrane potential (AID 720635); details: HepG2 mitochondrial membrane potential, Mito-MPS dye ratio; ratio activity, negative = MMP loss: at 83.2 µM (top of the series) unless noted; also: potency is read from the fitted curve at half-maximal effect
# Outline: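 HepG2 cells exposed to compound 1 hr at 37C, then Mito-MPS dye 30 min. Ratio read of aggregate (540/590 nm) versus monomer (490/535 nm) fluorescence.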
# [11] = target: Peroxisome proliferator-activated receptor delta (Homo sapiens) (UniProt Q03181); assay: qHTS assay to identify small molecule antagonists of the peroxisome proliferator-activated receptor delta (PPARd) signaling pathway (AID 743215; active = well fitted inhibition curve with a large enough effect in the signal ratio in the repeat runs, not every such curve was filed as active; inconclusive = weak or mixed curves, or effect the other way; inactive = no such curve, though single readings can be large or run the other way; the % refers to the signal ratio;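 also: cells stimulated with agonist L165041 at 300 nM final during compound exposure; % is scaled to controls: 0 for no effect and ±100 for the full control effect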); details: HEK293H PPARd-UAS-bla, beta-lactamase FRET ratio, antagonist, 17 h; ratio activity, negative = inhibition: at 62 µM (top of the series) unless noted
# Outline: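 HEK293H GeneBLAzer PPARd UAS-bla reporter cells; cpd + L165041 300 nM final, 17 h 37 C; LiveBLAzer B/G FRET substrate 2 h RT; fluorescence intensity read-out. Antagonist mode.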
# [12] = qHTS assay for small molecule agonists of the antioxidant response element (ARE) signaling pathway (AID 743202; active = well fitted activation curve with a large enough effect in the signal ratio in the repeat runs, not every such curve was filed as active; inconclusive = weak or mixed curves, or effect the other way; inactive = no such curve, though single readings can be large or run the other way; the % refers to the signal ratio; also: % is scaled to controls: 0 for no effect and ±100 for the full control effect); details: HepG2 ARE-bla reporter, beta-lactamase FRET, 16 h; activation: at 73.3 µM (top of the series) unless noted
# Outline: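 HepG2 ARE-bla cells; 16 h treatment at 37 C; FRET-based beta-lactamase fluorescence read after 2 h substrate incubation at room temperature.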
# [13] = qHTS RealTime-Glo MT Cell Viability Assay in HEK293 cells - 16 hour (AID 1224872); also: nearly all actives have a fitted effect of over 50% in size; also: potency is read from the fitted curve at half-maximal effect
# Outline: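 Homogeneous bioluminescent viability format in HEK293 cells (600 cells/well). Following 5 h at 37 C/5% CO2, 23 nL compound was pintooled; the signal was measured repeatedly during 40 h incubation.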
# [14] = target: Cytochrome P450 1A2 (Homo sapiens) (UniProt P05177); assay: Cytochrome P450 Family 1 Subfamily A Member 2 (CYP1A2) small molecule antagonists: luciferase reporter qHTS assay (AID 1671199); also: nearly all actives have a fitted effect of over 50% in size; also: potency is read from the fitted curve at half-maximal effect
# Chain of UniProt P05177 (P05177 whole entry, looked up): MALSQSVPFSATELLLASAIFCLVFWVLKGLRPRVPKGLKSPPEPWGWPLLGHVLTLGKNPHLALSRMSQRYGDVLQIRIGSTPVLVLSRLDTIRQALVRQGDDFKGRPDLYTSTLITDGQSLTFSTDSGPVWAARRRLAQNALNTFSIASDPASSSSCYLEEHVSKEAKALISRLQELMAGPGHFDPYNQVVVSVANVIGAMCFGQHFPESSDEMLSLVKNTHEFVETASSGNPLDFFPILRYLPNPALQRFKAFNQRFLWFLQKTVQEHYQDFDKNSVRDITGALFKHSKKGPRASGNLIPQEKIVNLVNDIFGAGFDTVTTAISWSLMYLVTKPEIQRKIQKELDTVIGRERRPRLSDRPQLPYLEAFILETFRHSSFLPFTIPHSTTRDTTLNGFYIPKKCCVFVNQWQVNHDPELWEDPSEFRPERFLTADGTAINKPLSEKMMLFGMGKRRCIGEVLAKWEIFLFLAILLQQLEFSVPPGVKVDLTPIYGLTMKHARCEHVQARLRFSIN
# Outline: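 Luminescence readout (relative luminescence units) after luciferin detection reagent, 20 min RT. Preceded by 1 h room-temperature CYP1A2 reaction with NADPH regeneration solution following 10 min compound preincubation with enzyme and proluciferin substrate. Furafylline positive control.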
# [15] = target: Glucocorticoid receptor (Homo sapiens) (UniProt P04150); assay: qHTS assay to identify small molecule antagonists of the glucocorticoid receptor (GR) signaling pathway (AID 720692; active = well fitted inhibition curve with a large enough effect in the signal ratio in the repeat runs, not every such curve was filed as active; inconclusive = weak or mixed curves, or effect the other way; inactive = no such curve, though single readings can be large or run the other way; the % refers to the signal ratio; also: % is scaled to controls: 0 for no effect and ±100 for the full control effect); details: GR-bla HeLa, beta-lactamase FRET ratio, dexamethasone-stimulated, 18 h; activity change, negative = inhibition: at 58.5 µM (top of the series) unless noted
# Chain of UniProt P04150 (P04150 whole entry, looked up): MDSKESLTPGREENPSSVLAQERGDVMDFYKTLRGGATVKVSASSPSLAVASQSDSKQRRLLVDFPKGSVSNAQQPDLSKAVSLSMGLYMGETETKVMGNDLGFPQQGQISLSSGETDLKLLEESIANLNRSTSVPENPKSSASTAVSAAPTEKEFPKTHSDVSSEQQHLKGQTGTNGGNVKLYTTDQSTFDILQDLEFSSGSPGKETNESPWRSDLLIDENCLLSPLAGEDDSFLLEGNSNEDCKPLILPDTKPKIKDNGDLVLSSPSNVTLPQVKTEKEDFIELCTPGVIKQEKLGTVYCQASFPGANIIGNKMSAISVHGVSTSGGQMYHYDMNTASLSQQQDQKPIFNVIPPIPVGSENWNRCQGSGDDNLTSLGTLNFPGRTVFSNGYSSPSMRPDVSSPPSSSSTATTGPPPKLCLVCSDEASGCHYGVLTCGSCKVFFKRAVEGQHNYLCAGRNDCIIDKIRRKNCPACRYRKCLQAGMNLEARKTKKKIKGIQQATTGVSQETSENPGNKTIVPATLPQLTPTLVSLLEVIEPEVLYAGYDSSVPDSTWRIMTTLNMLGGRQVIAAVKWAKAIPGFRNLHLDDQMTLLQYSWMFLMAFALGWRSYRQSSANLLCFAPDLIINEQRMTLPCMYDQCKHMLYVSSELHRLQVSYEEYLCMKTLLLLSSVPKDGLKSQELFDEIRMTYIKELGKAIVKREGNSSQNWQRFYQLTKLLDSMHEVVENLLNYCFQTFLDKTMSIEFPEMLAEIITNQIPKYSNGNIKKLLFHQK
# Outline: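 Read-out: beta-lactamase FRET substrate fluorescence, 2 h at room temperature, in HeLa cells stably carrying a GRE-driven bla reporter. Compounds were co-incubated with 5 nM dexamethasone agonist (final) for 18 h at 37 C.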
# [16] = qHTS assay for identifying genotoxic compounds that show differential cytotoxicity against isogenic chicken DT40 cell lines with known DNA damage response pathways - wild type cell line (AID 743012); details: DT40 wild type chicken cells viability, CellTiter-Glo, 40 h; activity change, negative = cytotoxicity: at 68.4 µM (top of the series) unless noted; also: nearly all actives have a fitted effect of over 60% in size; also: potency is read from the fitted curve at half-maximal effect
# Outline: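 CellTiter-Glo luminescence readout of viability in wild type DT40 cells after 40 h compound exposure at 37 C/5% CO2; 300 cells/well; reagent incubated 30 min at room temperature before reading.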
# [17] = target: Estrogen receptor (Homo sapiens) (UniProt P03372); assay: qHTS assay to identify small molecule agonists of the estrogen receptor alpha (ER-alpha) signaling pathway using the BG1 cell line (AID 743079); details: BG1Luc4E2 cells, ERE-luciferase agonist, 22 h; activation: at 70.3 µM (top of the series) unless noted; also: nearly all actives have a fitted effect of over 20% in size; also: potency is read from the fitted curve at half-maximal effect
# Chain of UniProt P03372 (P03372 whole entry, looked up): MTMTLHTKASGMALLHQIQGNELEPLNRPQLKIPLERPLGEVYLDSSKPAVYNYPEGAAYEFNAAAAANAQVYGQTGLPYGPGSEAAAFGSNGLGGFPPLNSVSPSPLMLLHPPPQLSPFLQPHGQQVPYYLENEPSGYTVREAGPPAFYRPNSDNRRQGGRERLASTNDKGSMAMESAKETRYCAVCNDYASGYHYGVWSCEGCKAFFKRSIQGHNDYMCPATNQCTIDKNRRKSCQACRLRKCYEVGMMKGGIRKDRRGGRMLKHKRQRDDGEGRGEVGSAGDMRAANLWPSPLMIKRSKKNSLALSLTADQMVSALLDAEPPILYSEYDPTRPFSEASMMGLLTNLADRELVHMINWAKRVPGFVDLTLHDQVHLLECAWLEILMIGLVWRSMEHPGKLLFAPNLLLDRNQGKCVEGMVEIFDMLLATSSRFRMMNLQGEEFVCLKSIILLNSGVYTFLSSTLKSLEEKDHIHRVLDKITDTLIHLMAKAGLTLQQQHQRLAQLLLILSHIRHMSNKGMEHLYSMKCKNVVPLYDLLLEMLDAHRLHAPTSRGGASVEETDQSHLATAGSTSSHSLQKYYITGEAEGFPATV
# [18] = qHTS assay to identify small molecule agonists of the progesterone receptor (PR) signaling pathway - cell viability counter screen (AID 1346799; calls by dose curve; also: % is scaled to controls: 0 for no effect and ±100 for the full control effect; nearly all actives have a fitted effect of over 45% in size)
# Outline: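 Here, 3,000 PR-UAS-bla HEK293T cells per well were treated with compounds for 16 hr after a 6 hr preincubation at 37C and 5% CO2; cell viability is the CellTiter-Glo luminescence signal.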
# [19] = qHTS assay to identify small molecule antagonists of the thyroid receptor (TR) signaling pathway - cell viability counter screen (AID 743064); details: GH3.TRE-Luc viability, CellTiter-Fluor, 24 h; activity change, negative = cytotoxic: at 70.3 µM (top of the series) unless noted
# Outline: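 In rat pituitary GH3.TRE-Luc reporter cells co-exposed to compound and 1 nM T3 for 23.5 h, cytotoxicity was assessed with CellTiter-Fluor in the same wells, read by fluorescence.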
# [20] = qHTS assay to identify small molecule antagonists of the estrogen receptor alpha (ER-alpha) signaling pathway - cell viability counter screen (AID 743074; calls by dose curve;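 also: HEK293 cells carrying ER-alpha-UAS-bla reporter stimulated with 17beta-estradiol; potency is read from the fitted curve at half-maximal effect; nearly all actives have a fitted effect of over 45% in size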)
# Tags tell the direction and shape of the fitted curve or compound fluorescence and quenching.
compound,measurement,setting,value
CC(=O)NCc1c(I)c(NC(C)=O)c(I)c(C(=O)O)c1I,Potency,[1],"inconclusive: 29.8 µM [rising, partial curve, poor fit]"
same,Potency,[2],inactive
same,"ratio activity, negative = inhibition",[3],inconclusive: 17.3%
same,Potency,[4],"inconclusive: 2.37 µM [cytotoxic, single point]"
same,"activity change, negative = inhibition",[5],inconclusive: -26.8%
same,"activity change, negative = inhibition",[6],inconclusive: 13% [at 42.5 µM]
same,Potency,[7],"inconclusive: 43.6 µM [inhibitor, single point]"
same,Potency,[8],inactive
Cc1[nH]c(=O)c(C#N)cc1-c1ccc2nccn2c1,Potency,[9],"inconclusive: 33.5 µM [rising, partial curve, poor fit]"
same,Potency,[10],"inconclusive: 0.119 µM [rising, single point]"
same,Potency,[1],"inconclusive: 11.9 µM [rising, partial curve, poor fit]"
same,Potency,[11],inactive
CCCCCNCCCCC,"ratio activity, negative = inhibition",[3],inconclusive: 1.67%
same,Potency,[12],inactive
same,Potency,[13],inactive
same,Potency,[7],"inconclusive: 81.6 µM [inhibitor, single point]"
same,Potency,[8],"inconclusive: 81.6 µM [inhibitor, partial curve, poor fit]"
same,Potency,[14],inactive
O=C(O)CCC(=O)Nc1ccc(S(=O)(=O)Nc2nccs2)cc1,Potency,[10],inactive
same,Potency,[15],inactive
same,Potency,[1],"inconclusive: 12.7 µM [rising, partial curve, poor fit]"
same,Potency,[12],inactive
same,Potency,[11],inactive
COc1cc(C(=O)OC(COCCC(C)C)CN2CCOCC2)cc(OC)c1OC (stereo not drawn),Potency,[16],"inconclusive: 33.5 µM [cytotoxic, single point]"
same,Potency,[17],inactive
same,Potency,[2],"inconclusive: 16.8 µM [cytotoxic, single point]"
same,Potency,[4],"inconclusive: 29.8 µM [cytotoxic, single point]"
same,Potency,[5],inactive
same,Potency,[13],inactive
same,Potency,[18],inactive
C=C(C)[C@@H]1CC=C(C)C(=O)C1,Potency,[16],"inconclusive: 24.3 µM [rising, partial curve, poor fit]"
same,Potency,[12],inactive
same,Potency,[13],inactive
same,Potency,[14],"inconclusive: 63.3 µM [inhibitor, partial curve]"
N=C(N)N1CCc2ccccc2C1,Potency,[10],inactive
same,activation,[12],inactive: -8.74% [at 8.36 µM]
same,"activity change, negative = inhibition",[5],inconclusive: -23.2% [at 6.95 µM]
same,"activity change, negative = inhibition",[6],inactive: 5.13% [at 8.39 µM]
CN(C)CCN(Cc1ccsc1)c1ccccn1,"activity change, negative = inhibition",[5],inconclusive: -0.671%
same,Potency,[6],inactive
CCOC(=O)OCC/C(SC(=O)OCC)=C(\C)N(C=O)Cc1cnc(C)nc1N,Potency,[10],inactive
same,Potency,[15],inactive
same,Potency,[19],inactive
same,Potency,[20],"inconclusive: 9.52 µM [cytotoxic, single point]"
same,Potency,[2],"inconclusive: 13.3 µM [rising, partial curve, poor fit]"
same,Potency,[12],inactive
same,Potency,[13],inactive
same,Potency,[6],inactive
CC(C)(CO)CO,Potency,[9],inactive
same,"ratio activity, negative = MMP loss",[10],inconclusive: 6.96% and inconclusive: 20.6%
same,"activity change, negative = cytotoxicity",[16],inconclusive: 20.1%
same,Potency,[17],"inconclusive: 61.1 µM [activator, partial curve]"
same,Potency,[11],inactive
same,Potency,[7],"inconclusive: 89.6 µM [inhibitor, single point]"
same,Potency,[14],"inconclusive: 71.2 µM [inhibitor, partial curve, poor fit] and inconclusive: 79.6 µM [inhibitor, partial curve]"
C=COCC1CCC(COC=C)CC1 (stereo not drawn),"activity change, negative = inhibition",[15],inconclusive: 44.3% [activator]
same,Potency,[1],"inconclusive: 68.6 µM [cytotoxic, single point]"
same,"ratio activity, negative = inhibition",[3],inconclusive: -5.2%
same,Potency,[13],"inconclusive: 0.49 µM [cytotoxic, single point]"
same,Potency,[6],inactive
same,Potency,[7],"inconclusive: 79.6 µM [inhibitor, single point]"
C[C@H]1C[C@H]2[C@@H]3CCC4=CC(=O)C=C[C@]4(C)[C@@]3(F)[C@@H](O)C[C@]2(C)[C@@]1(O)C(=O)CO,Potency,[10],inactive
same,Potency,[16],"inconclusive: 68.6 µM [cytotoxic, single point]"
same,Potency,[1],"inconclusive: 6.68 µM [cytotoxic, full curve]"
O=S(O)(O)=S,"ratio activity, negative = MMP loss",[10],inconclusive: 19.8% [at 8.08 µM]
same,"ratio activity, negative = inhibition",[3],inactive: 10.9% [at 5.95 µM]
same,activation,[12],inactive: -7.19% [at 8.36 µM]
same,"activity change, negative = cytotoxicity",[13],inactive: 0.498% [at 6.97 µM]
CCCCC(C)C(=O)O (stereo not drawn),Potency,[10],inactive
same,Potency,[16],inactive
same,"ratio activity, negative = inhibition",[3],inconclusive: 16.1%
same,Potency,[18],inactive
same,Potency,[8],"inconclusive: 71 µM [inhibitor, partial curve, poor fit]"
Cc1cccc(N(C)C)c1,Potency,[13],inactive
same,Potency,[7],"inconclusive: 89.4 µM [inhibitor, single point]"
CC12CCC(C(=O)C1=O)C2(C)C (stereo not drawn),Potency,[10],inactive
same,Potency,[19],inactive
same,Potency,[20],"inconclusive: 1.76 µM [rising, full curve, poor fit]"
same,"ratio activity, negative = inhibition",[3],inconclusive: -7.52% [at 81.1 µM]
same,Potency,[13],inactive
CC(C)NCC(O)COc1ccc(CC(N)=O)cc1 (stereo not drawn),Potency,[10],"inconclusive: 0.611 µM [activator, full curve, poor fit]"
same,Potency,[3],inactive
same,Potency,[13],inactive
COc1cc(O)cc(O)c1,"ratio activity, negative = MMP loss",[10],inconclusive: -15.7%
same,Potency,[17],"inconclusive: 1.19 µM [activator, single point]"
same,activation,[12],inconclusive: 22.5%
same,Potency,[13],inactive
same,Potency,[14],"inconclusive: 36.3 µM [inhibitor, partial curve]"

# — PubChem BioAssay (Tox21)
